# Hit rate of the full screen: of about 310,000 compounds, about 2,200 (0.71%) showed an effect of 50% or more. The effect is printed as a negative number. This is one part of the list.
# Target: human ether-à-go-go-related gene (hERG) potassium channel (human, UniProt Q12809)
# Assay: primary screen, population patch clamp on CHO cells stably expressing hERG
# human ether-à-go-go-related gene (hERG) potassium channel, sequence (Q12809 whole entry, looked up): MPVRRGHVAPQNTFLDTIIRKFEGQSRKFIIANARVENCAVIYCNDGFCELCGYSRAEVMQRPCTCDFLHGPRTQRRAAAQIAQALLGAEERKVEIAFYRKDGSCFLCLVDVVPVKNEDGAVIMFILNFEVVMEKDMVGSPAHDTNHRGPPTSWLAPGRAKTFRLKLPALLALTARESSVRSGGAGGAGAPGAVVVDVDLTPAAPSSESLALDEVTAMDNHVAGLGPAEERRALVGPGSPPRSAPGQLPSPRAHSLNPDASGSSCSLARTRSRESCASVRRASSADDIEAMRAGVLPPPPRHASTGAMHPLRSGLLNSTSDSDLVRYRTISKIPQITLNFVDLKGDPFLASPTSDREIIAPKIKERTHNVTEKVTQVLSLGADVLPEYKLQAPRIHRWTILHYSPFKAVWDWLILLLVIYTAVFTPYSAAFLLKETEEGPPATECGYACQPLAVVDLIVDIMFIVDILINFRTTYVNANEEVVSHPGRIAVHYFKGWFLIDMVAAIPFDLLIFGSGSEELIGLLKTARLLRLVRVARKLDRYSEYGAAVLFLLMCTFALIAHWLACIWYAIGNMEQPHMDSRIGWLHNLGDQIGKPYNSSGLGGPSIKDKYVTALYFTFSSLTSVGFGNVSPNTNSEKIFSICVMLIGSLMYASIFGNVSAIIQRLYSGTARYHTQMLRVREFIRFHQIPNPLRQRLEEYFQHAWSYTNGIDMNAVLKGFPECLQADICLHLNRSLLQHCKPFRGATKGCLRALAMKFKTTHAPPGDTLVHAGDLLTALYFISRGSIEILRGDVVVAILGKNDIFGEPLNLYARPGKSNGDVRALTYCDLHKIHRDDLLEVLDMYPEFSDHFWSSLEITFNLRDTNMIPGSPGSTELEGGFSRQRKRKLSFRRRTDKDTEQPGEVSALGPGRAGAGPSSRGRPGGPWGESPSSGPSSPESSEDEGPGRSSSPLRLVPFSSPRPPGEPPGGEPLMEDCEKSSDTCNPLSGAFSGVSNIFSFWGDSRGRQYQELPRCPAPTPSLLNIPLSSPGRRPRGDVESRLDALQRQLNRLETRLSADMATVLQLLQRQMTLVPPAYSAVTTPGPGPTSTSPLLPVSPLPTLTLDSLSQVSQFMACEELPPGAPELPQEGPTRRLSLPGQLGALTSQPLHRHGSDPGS
row,SMILES,"hERG current change (%, negative = inhibition) at 1uM [%]"
1,O=C(NCc1ccccn1)c1ccc(OC2CCN(Cc3ccccc3O)CC2)cc1,10.9
2,COc1ccc(Cl)cc1N(CC(=O)N1CCCC1)S(C)(=O)=O,14.3
3,Cc1onc(-c2ccccc2)c1C(=O)N1CCOC12CCN(c1cccc(F)n1)CC2,-3.6
4,COc1ccc(CCNCc2ccc(SC)cc2)cc1,-39.3
5,Cc1cccc(C(C(=O)NC2CCCC2)N(Cc2cccnc2)C(=O)c2csnn2)c1 (centres unmarked),11.2
6,COC(=O)c1cc(Cl)c(NC(=O)/C=C/c2ccc(Cl)cc2Cl)cc1OC,-0.34
7,O=[N+]([O-])c1cccc(CN2CCN(c3ncccn3)CC2)c1,11.9
8,COc1ccc(Cl)cc1NC(=O)C(C)N(C)Cc1cccc(Cl)c1Cl (centres unmarked),3.57
9,COc1ccc(N2CC(O)=C(c3nc4ccccc4s3)C2=N)c(OC)c1,0.0083
10,O=c1[nH]c(=O)c2nc3ccccc3nc2[nH]1,2.78
11,O=C(CCN1C(=O)S/C(=C\c2ccccc2)C1=O)Nc1ccc(S(=O)(=O)Nc2nccs2)cc1,7.83
12,Cc1cc([N+](=O)[O-])ccc1N=Nc1c(N)[nH]n(-c2ccccc2)c1=O,15.2
13,CCN(CC(=O)Nc1ccc(NC(C)=O)cc1)C(=O)Cc1coc2cc(C)c(C)cc12,4.07
14,COc1ccc(OCC(=O)Nc2ccc3c(c2)CCC3)cc1,11.8
15,S=C(NCCCN1CCOCC1)Nc1ccc(Cl)cc1,1.8
16,Cc1ccc(Nc2cnn(C34CC5CC(CC(CC(=O)O)(C5)C3)C4)c(=O)c2Cl)c(Cl)c1,16.5
17,CN(CC(=O)Nc1ccc(S(=O)(=O)N(C)C)cc1)Cc1ccc(C(F)(F)F)cc1,11.8
18,OC1(c2cccs2)CN(c2ccccc2)C2=[N+]1CCCC2.[Br-] (centres unmarked),10.6
19,CC1(CCC(=O)N2CCCC(Nc3ccc(F)cc3)C2)CC1 (centres unmarked),4.38

row,SMILES,"hERG current change (%, negative = inhibition) at 1uM [%]"
1,CCn1c(SCC(=O)N2c3ccccc3CCc3ccccc32)nnc1-c1ccc(OC)cc1,11.8
2,O=[N+]([O-])c1ccc(NC(=S)N2CCN(c3ccccn3)CC2)cc1,6.94
3,Cc1ccc(OCC(=O)Nc2ccc3c(c2)OCO3)c([N+](=O)[O-])n1,10.1
4,CCOc1ccc(OCCCC(=O)O)cc1,-4.88
5,Cc1c(NC(=O)COC(=O)c2ncc(Cl)c(Cl)c2Cl)c(=O)n(-c2ccccc2)n1C,9.8
6,COc1ccc2c(c1)CCC1=C2NC(=S)NC1c1ccc(N(C)C)cc1 (centres unmarked),11.7
7,COC(=O)C1=C(c2cc3ccccc3o2)C[C@@H]2CC[C@H]1N2C(=O)NCCCOC(C)C,0.0739
8,CCOCc1nnc(NC(=O)COC)s1,6.03
9,Cc1ccc(S(=O)(=O)CCC(=O)c2ccc(O)cc2O)cc1,1.79
10,COCCOC(=O)/C(C#N)=C/c1cn(Cc2ccccc2)nc1-c1cccnc1,-17.2
11,CCOc1ccc(NC(=S)NCCCc2ccccc2)cc1,7.24
12,Cc1ccc(CNC(=O)CSc2c3c(nc4ccc(Cl)cc24)CCCC3)o1,4.68
13,CCCn1c(N)c(C(=O)CSc2n[nH]c(-c3ccccc3F)n2)c(=O)n(C)c1=O,-4.23
14,CN1/C(=C/C(=O)c2ccc(Cl)cc2)Sc2cc3c(cc21)OCO3,8.95
15,CCOc1ccc(-c2cc(N)n(S(=O)(=O)c3cccc4nsnc34)n2)cc1,4.69
16,CCCCc1cc(=O)oc2cc(C)cc(OC(C)C(=O)NCC3CCC(C(=O)O)CC3)c12 (centres unmarked),12.5
17,OC(COC(c1ccccc1)c1ccccc1)CN1CCOCC1 (centres unmarked),5.61
18,COc1ccc(C(C(=O)NCCC(C)C)N(CCN2CCOCC2)C(=O)Cn2nnc3ccccc32)c(OC)c1 (centres unmarked),7.79
19,CCN1CCN(c2nc3c(C)cccn3c(=O)c2/C=C(\C#N)S(=O)(=O)c2ccc(Cl)cc2)CC1,5.85

row,SMILES,"hERG current change (%, negative = inhibition) at 1uM [%]"
1,COc1cc(NC(=O)C2=C(N3CCOCC3)/C(=C/c3ccc(Cl)cc3)CC2)cc(OC)c1OC,9.72
2,COc1ccc(CC(=O)NCc2nn(-c3ccccc3)nc2C)cc1OC,11
3,CCN1C(=O)CC(C(=O)O)SC1=Nc1ccc(OC)cc1 (centres unmarked),10.1
4,CN(C)CCCN(CCCNC(=O)/C=N/O)Cc1ccccc1,6.6
5,O=C(CNS(=O)(=O)c1ccc(F)cc1)N1CCN(c2ccccc2)CC1,6.69
6,CCCC1CC(C)(/C(C)=N\NC(N)=S)OC1=O (centres unmarked),6.17
7,COc1ccccc1/C=C1/C(=N/O)C2CCN1CC2,4.84
8,CCCCn1c(O)c(C(C)=NCc2ccc3c(c2)OCO3)c(=O)[nH]c1=O,4.25
9,Cc1cc(NC(=O)/C=C/c2ccc(F)cc2)n(-c2nc3ccccc3[nH]2)n1,3.2
10,O=C(Nc1ccc(OC(F)(F)F)cc1)c1ccc2ccccc2n1,15.9
11,CCCC(=O)C1=C(O)C(C(=O)OC)C(C)(C)CC1=NCCCCCC(=O)O (centres unmarked),5.95
12,O=C(O)C(Cc1ccccc1)N1Cc2ccccc2C1=O (centres unmarked),8.5
13,O=S(=O)(Nc1ccccc1)c1ccc(-c2csnn2)cc1,11.5
14,COC(=O)c1ccccc1NC(=S)N1CCN(c2ccccc2)CC1,5.23
15,CC(C)(C)CC(=O)NC(=S)Nc1ccccc1C(F)(F)F,-4.46
16,CCN(CC)c1ccc(C=NCCc2ccc(S(N)(=O)=O)cc2)cc1,11.1
17,COc1ccc(Cl)cc1Nc1nc(N)c2ccccc2n1.Cl,14
18,CCOC(=O)C1C(C)=CC(=O)CC1c1ccco1 (centres unmarked),19.2

# Source: article PMC4336329 (PLoS ONE, 2015)
